Assay results taken from article PMC4336329 (PLoS ONE, 2015).
Among all 310,000 compounds or so, about 2,200 (0.71%) showed an effect of 50% or more. Effects have a minus sign here. The list shows a part of the results.

Biological target: human ether-à-go-go-related gene (hERG) potassium channel (human, UniProt Q12809)
Assay: primary screen, population patch clamp on CHO cells stably expressing hERG

human ether-à-go-go-related gene (hERG) potassium channel, sequence (Q12809 whole entry, looked up): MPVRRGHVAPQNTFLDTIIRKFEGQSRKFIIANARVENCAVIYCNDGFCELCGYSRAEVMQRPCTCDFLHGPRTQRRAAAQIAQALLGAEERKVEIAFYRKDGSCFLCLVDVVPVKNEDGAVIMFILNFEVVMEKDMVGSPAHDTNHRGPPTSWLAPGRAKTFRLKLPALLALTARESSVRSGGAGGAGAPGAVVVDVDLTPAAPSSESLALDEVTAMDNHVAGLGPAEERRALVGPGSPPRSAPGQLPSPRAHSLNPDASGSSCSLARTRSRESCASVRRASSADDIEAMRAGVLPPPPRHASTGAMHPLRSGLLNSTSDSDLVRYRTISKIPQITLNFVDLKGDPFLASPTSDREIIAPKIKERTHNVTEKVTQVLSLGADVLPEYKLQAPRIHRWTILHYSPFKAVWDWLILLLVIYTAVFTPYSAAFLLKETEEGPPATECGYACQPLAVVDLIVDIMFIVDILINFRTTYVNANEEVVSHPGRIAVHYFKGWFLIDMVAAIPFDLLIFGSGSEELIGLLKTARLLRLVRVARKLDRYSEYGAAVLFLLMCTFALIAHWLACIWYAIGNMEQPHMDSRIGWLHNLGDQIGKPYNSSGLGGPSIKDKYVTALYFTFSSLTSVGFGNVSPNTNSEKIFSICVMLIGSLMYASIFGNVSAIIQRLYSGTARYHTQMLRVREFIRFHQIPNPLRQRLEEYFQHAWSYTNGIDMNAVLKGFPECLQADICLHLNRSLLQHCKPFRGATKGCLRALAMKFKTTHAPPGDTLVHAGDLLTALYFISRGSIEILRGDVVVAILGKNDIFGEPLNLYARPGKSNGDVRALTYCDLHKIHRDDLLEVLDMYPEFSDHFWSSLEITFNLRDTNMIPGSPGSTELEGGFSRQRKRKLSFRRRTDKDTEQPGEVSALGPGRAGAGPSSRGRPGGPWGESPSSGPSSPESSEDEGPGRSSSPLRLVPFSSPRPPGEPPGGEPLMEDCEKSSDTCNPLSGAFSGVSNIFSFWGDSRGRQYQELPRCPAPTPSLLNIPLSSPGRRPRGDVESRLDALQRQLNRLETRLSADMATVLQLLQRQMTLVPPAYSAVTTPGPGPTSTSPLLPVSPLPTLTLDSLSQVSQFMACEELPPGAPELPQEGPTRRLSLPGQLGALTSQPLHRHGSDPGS

| Compound | hERG current change (%, negative = inhibition) at 1uM |
| --- | --- |
| CCOc1ccccc1N1CC(C(=O)Nc2ccccc2CC)CC1=O (stereo not shown) | 7.8% |
| O=C(Nc1c2c(nn1-c1cccc(Cl)c1)CS(=O)C2)c1ccc2c(c1)OCO2 (stereo not shown) | 5.39% |
| COc1ccc2cc3cc(C(=O)NCC4CCCO4)oc3nc2c1 (stereo not shown) | 4.72% |
| CC(=O)Nc1ccc(S(=O)(=O)N2CCn3cccc3C2C)cc1 (stereo not shown) | 11.8% |
| COc1ccc(NC(=S)NNC(=O)Cn2nc([N+](=O)[O-])cc2C)cc1 | 6.52% |
| COc1ccc(/C=C2\SC(=S)N(CCC(=O)N3CCOCC3)C2=O)cc1 | 17.9% |
| COc1ccc(N2CCN(C(=O)Cc3ccc(S(=O)(=O)N4CCOCC4)s3)CC2)cc1 | 6.08% |
| N#C/C(=C/c1ccc(-c2ccccc2[N+](=O)[O-])o1)C(=O)NCCN1CCCCC1 | -28.3% |
| CC(C)(C)NC(=O)C(c1ccccn1)N(C(=O)c1csnn1)C1CCCC1 (stereo not shown) | 0.174% |
| COC(=O)c1ccc(Cn2nc(C)c([N+](=O)[O-])c2C)o1 | 2.01% |
| O=C(Nc1cc2c(cc1C(=O)O)OCCCO2)c1ccc(F)cc1F | 8.81% |
| CC(=O)N1CCN(CC(=O)Nc2ccc(Cl)c(S(=O)(=O)N(C)C)c2)CC1 | 10.2% |
| O=C(CN1CCNCC1)Nc1ccccc1Cl | 9.85% |
| O=C(c1cc([N+](=O)[O-])cc([N+](=O)[O-])c1)N(c1ccccn1)c1ccccn1 | -3.99% |
| COCCNC(=O)CSc1nc2c(n1-c1ccccc1)CCCC2 | 13.3% |
| COc1ccc(-n2nc3c(c2NC(=O)c2ccccc2S(=O)(=O)C(F)F)CS(=O)(=O)C3)cc1 | 4.68% |
| COc1ccc(Br)cc1/C=c1\sc2nc(-c3ccco3)nn2c1=O | 8.49% |
| Cc1ccc(SCc2ccc(C(=O)Nc3ccccc3C(=O)NC(C)C)cc2)cc1 | 14% |
| O=C1CC(c2ccc3c(c2)OCCO3)Oc2ccccc21 (stereo not shown) | 11% |
| CN(c1ncc(C(F)(F)F)cc1Cl)N1C(=O)c2cccc([N+](=O)[O-])c2C1=O | 5.72% |
| CC(=O)COc1ccc2oc(=O)cc(-c3cc4ccccc4o3)c2c1 | 7.1% |
| O=C(Cc1n[nH]c(=O)[nH]c1=O)N/N=C/c1ccccc1 | 13.6% |

| Compound | hERG current change (%, negative = inhibition) at 1uM |
| --- | --- |
| O=C(Nc1ccc(N2CCCC2)cc1)c1ccccc1[N+](=O)[O-] | 10.9% |
| Cc1cc(C)cc(-n2nnc(C(=O)NCc3ccco3)c2N)c1 | -12.3% |
| Cc1ccc(C)c(NC(=O)CSc2nccn2Cc2ccco2)c1 | 8.75% |
| CCN(CC)C(=O)c1[nH]cnc1C(=O)NCC(=O)OC(C)(C)C | -9.07% |
| O=C(NC1CCCC1)c1cccc2c1C(=O)c1ccc(Cl)cc1S2(=O)=O | 9.45% |
| O=S(=O)(Nc1cccc2ncccc12)c1cccs1 | -5.29% |
| C=C1C[C@H]2[C@@H]3C=C(C)C4=CC(=O)CC[C@]4(C)[C@H]3CC[C@]2(C)[C@@]1(OC(C)=O)C(C)=O | 9.54% |
| Cc1cc(C)c2cc3c(N)c(C(=O)Nc4c(C)[nH]c(=O)[nH]c4=O)sc3nc2c1 | 8.22% |
| CC1(C)CC(=O)C(C=Nc2ccc(NC3=C(C#N)C(=O)CC(C)(C)C3)cc2)=C(O)C1 | 9.1% |
| CCS(=O)(=O)N1CCC(C(=O)Oc2ccc(Br)cc2)CC1 | 10.7% |
| CC(C)CSC1=NSC2=NC(=O)/C(=C\c3cccs3)C(=N)N12 | 32.7% |
| Cc1cc(=O)n(CC(=O)NC2CC2)c2c1c(C)nn2-c1ccccc1 | 16.7% |
| COc1cc(-c2nnc(-c3cc(OC)c(OC)c(OC)c3)o2)cc(OC)c1OC | 2.16% |
| COc1ccc(/C=C2\CCCC(C(=O)C(F)(F)F)=C2O)cc1 | 12.7% |
| COc1ccc([N+](=O)[O-])cc1NC(=O)CCS(=O)(=O)c1ccc(Br)cc1 | 9.46% |
| COc1cc2c(cc1C=O)OCO2 | 6.14% |
| CCCCCCOC(=O)Cc1c(C)nc(N)[nH]c1=O | 14.2% |
| COCCNC(=O)c1ccc(Cn2c(SCC(=O)NCC3CCCO3)nc3ccc(Br)cc3c2=O)cc1 (stereo not shown) | 2.05% |
| COc1cccc(OCCCOc2ccccc2C(C)C)c1 | 2.38% |
| CC(=O)Nc1ccc(N2C(=O)c3ccc(S(=O)(=O)c4ccc(C(=O)O)cc4)cc3C2=O)cc1 | 9.5% |
| O=C(Oc1ccc2c(c1)CCC2)N1CCOCC1 | 11.3% |
| CN1CCN(C(=O)C(C(=O)c2ccc(F)cc2)n2ccccc2=O)CC1 (stereo not shown) | -0.557% |

| Compound | hERG current change (%, negative = inhibition) at 1uM |
| --- | --- |
| CCNC(=O)NC(=O)C(C)Oc1ccc(C(=O)OC)cc1 (stereo not shown) | 8.65% |
| CCc1cc(C(=O)NNC(=S)NC(C)c2ccccc2)cs1 (stereo not shown) | 4.52% |
| COc1ccc(-c2cc(C(=O)NNC3=NCCC3)c3c(C)nn(-c4ccccc4)c3n2)cc1 | 8.4% |
| COc1ccc(NC(=O)C2CCCN2S(=O)(=O)c2ccc3c(c2)CCC(=O)N3)c(OC)c1 (stereo not shown) | 1.58% |
| O=[N+]([O-])c1cc(S(=O)(=O)Nc2ccccc2)ccc1NCc1cccnc1 | 11.1% |
| O=C(CCCN1C(=O)c2cccc3cccc(c23)C1=O)N1CCN(c2ccc(F)cc2)CC1 | -0.672% |
| Cc1ccc(-c2noc(CN3CCCCC3)n2)cc1 | 31.5% |
| Cc1cc(C)c(NC(=O)CNC(=O)COC(=O)Cc2cccs2)c(C)c1 | 1.99% |
| Cc1ccc2nc(C(=O)O)c(C(=O)O)nc2c1 | 3.75% |
| NS(=O)(=O)c1ccc(NC(=O)c2ccccc2Cl)cc1 | 9.39% |
| S=c1[nH]c(-c2ccc(Br)cc2)cn1CCc1ccccc1 | 8.58% |
| O=C(CSc1nc2ccccc2s1)NNC(=S)Nc1ccccc1 | 2.11% |
| Cc1cc(C)n(-c2ccc(C(=O)Nc3cc(S(=O)(=O)N(C)C)ccc3Cl)cc2)n1 | 9.18% |
| CCC(=O)N1CCc2cc(S(=O)(=O)N3CCN(c4ccccn4)CC3)ccc21 | 7.91% |
| Clc1ccccc1-c1nnc2n1CCCCC2 | 21.7% |
| COc1cc(/C=N/Nc2ccccc2)ccc1O | 14.5% |
| CCOP(=O)(OCC)c1nc(-c2ccc(F)cc2)oc1NCc1ccccc1 | 9.39% |
| O=C(CNC(=O)c1cccc([N+](=O)[O-])c1)NC1CCCc2ccccc21 (stereo not shown) | -7.25% |
| O=C1c2ccccc2C(=O)N1CCC(c1ccccc1)c1ccco1 (stereo not shown) | 13.8% |
| Cc1ccc(C2CC(C(F)(F)F)n3nc(C(=O)Nc4c(C)n(C)n(-c5ccccc5)c4=O)cc3N2)cc1 (stereo not shown) | 14.9% |
| CCC(=O)N1c2ccc(S(=O)(=O)CCC(=O)N3CCN(c4ccccc4F)CC3)cc2CC1C (stereo not shown) | -7.5% |
| COc1ccc(S(=O)(=O)N2CCC(C(N)=O)CC2)cc1C(=O)N1CCCCCC1 | 20.3% |

| Compound | hERG current change (%, negative = inhibition) at 1uM |
| --- | --- |
| COc1cccc(NC(=O)CN(C)C(=O)c2cc(S(=O)(=O)N3CCCCCC3)ccc2OC)c1 | -2.8% |
| CCCCc1ccc(NC(=O)CSC2=C(C#N)C(c3ccco3)C3=C(CCCC3=O)N2)cc1 (stereo not shown) | 10.8% |
| COc1ccc(C(=O)CCN2CCN(c3ccccc3OC)CC2)cc1.Cl | -4.48% |
| Cc1nc2ccc(N=NC3=C(O)CCCC3=O)cc2s1 | 12.5% |
| COCCn1c(SCC(=O)Nc2sc(C)c(C)c2C#N)nnc1-c1ccc(OC)cc1 | -5.5% |
| CN(C)/C=C1\C(=O)N(c2ccc([N+](=O)[O-])cc2)N=C1c1ccccc1 | -5.03% |
| Cc1cc(NC(=O)c2ccc3c(c2)C(=O)N(CC(C)C)C3=O)no1 | 12.3% |
| Cn1cc(Cl)c(C(=O)N2CCN(c3ncccn3)CC2)n1 | 9.35% |
| COc1ccccc1N(CC(=O)NC1CCCC1)C(=O)CCC(=O)Nc1cc(C)on1 | 8.06% |
| Cc1ccc2c(c1)c1c3n2CC(=C2C(=O)OC(C)(C)OC2=O)NC3CCC1.Cl (stereo not shown) | 2.59% |
| COCCCn1c(Cc2csc(Nc3cccc(Cl)c3)n2)nnc1SCC(=O)OC1CCCCC1 | -0.506% |
| COCCCn1c(-c2ccc(Cl)cc2)n[nH]c1=S | 22.4% |
| O=C(NCc1ccccc1)NC1(C(=O)N2CCN3CCCC3C2)CCCCC1 (stereo not shown) | 2.87% |
| Cc1cccc(N2CCN(C(c3ccccc3)c3nnnn3CC3CCCO3)CC2)c1C (stereo not shown) | 9.57% |
| Cc1ccnc(NC(=O)CSc2ccccn2)c1 | 15.3% |
| COc1cccc2sc(N(CCCN(C)C)C(=O)c3sc4ccccc4c3Cl)nc12.Cl | 10.5% |
| Cc1ccc(CNC(=O)C2CCC(CNc3c(N4CCOCC4)c(=O)c3=O)CC2)cc1 (stereo not shown) | 20.6% |
| Cc1ccc(S(=O)(=O)/N=C2/NC(=O)/C(=C/c3ccccc3)S2)cc1 | -17.1% |
| COc1cc2c(cc1OC)C(C(=O)Nc1cccc(C)n1)C(c1cccnc1)N(C)C2=O (stereo not shown) | 4.28% |
